Here are results for 44 molecules from paper PMC4336329 (PLoS ONE, 2015).

About 14,000 (4.5%) of roughly 310,000 compounds showed an effect of 50% or more. The effect is printed as a negative number. This is one part of the list.
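Also: peak tail current of the secondary pulse compared with the same well before compound.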

human ether-à-go-go-related gene (hERG) potassium channel, sequence (Q12809 whole entry, looked up): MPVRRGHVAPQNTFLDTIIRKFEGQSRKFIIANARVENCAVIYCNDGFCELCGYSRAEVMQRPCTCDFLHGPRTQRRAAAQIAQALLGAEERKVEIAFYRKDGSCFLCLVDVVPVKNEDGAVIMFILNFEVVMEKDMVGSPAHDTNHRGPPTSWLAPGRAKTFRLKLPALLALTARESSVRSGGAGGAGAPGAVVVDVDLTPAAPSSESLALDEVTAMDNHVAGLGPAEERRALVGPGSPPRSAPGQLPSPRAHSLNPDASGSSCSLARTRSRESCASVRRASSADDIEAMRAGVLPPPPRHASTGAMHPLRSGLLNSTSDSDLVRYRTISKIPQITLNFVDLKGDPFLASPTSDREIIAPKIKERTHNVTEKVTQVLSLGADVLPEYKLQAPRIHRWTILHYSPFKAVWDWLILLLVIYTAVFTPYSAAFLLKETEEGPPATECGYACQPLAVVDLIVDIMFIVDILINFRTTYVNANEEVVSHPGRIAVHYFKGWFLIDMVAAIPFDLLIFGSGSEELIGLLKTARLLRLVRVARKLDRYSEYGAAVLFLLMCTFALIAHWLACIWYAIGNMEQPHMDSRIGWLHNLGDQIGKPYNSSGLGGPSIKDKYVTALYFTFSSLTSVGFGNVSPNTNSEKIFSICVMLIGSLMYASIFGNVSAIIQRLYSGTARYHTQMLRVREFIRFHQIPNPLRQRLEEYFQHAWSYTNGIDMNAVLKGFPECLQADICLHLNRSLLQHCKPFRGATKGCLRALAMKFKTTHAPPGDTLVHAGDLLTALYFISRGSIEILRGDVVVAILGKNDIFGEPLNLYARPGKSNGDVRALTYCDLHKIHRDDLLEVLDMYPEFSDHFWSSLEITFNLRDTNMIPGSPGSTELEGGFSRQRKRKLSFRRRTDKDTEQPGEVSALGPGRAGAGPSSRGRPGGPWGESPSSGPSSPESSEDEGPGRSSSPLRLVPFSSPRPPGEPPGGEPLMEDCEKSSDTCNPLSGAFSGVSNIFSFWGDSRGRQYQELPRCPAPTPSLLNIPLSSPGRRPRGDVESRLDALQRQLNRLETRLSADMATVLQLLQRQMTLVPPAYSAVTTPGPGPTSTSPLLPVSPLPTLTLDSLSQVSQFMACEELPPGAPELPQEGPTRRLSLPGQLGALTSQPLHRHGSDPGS

The experiment concerns the target human ether-à-go-go-related gene (hERG) potassium channel (human, UniProt Q12809). Description: primary screen, population patch clamp on CHO cells stably expressing hERG.
Take `CCOC(=O)CSc1nc2cc3c(cc2cc1C#N)OCO3`: the “hERG current change (%, negative = inhibition) at 10uM” value is 1.16%.
As to `C1CCC(Nc2nnnn2C2CCCCC2)CC1`, the “hERG current change (%, negative = inhibition) at 10uM” value is reported as 7.77%.
The figure for `Cc1cccc(N(C(=O)CCC(=O)Nc2ccccn2)C(C(=O)NC(C)C)c2ccc(F)cc2)c1` (centres unmarked) is 23.2%; for `CN(C)c1nc(N)nc(CSc2nnnn2C)n1` it is 9.06%.
To `CCCn1nnnc1SCC(=O)NNC(=O)c1ccco1` belongs 7.41%; to `COc1cccc(CN2CCC(N(CCc3ccccc3)Cc3ccccc3)CC2)c1OC.O=C(O)C(=O)O`, -60.3%.
The figure for `CCN1CCN(CCCNC(=O)C2c3ccccc3C(=O)N(C)C2c2ccc(OC)cc2)CC1` (centres unmarked) is 14%.
With `C/C(CC(=O)Nc1ccc(F)cc1F)=N\NC(=O)C(=O)N1CCCCC1`, the “hERG current change (%, negative = inhibition) at 10uM” value amounted to 31%.
For `NC(=O)C1CC(=O)N(c2ccc(OCC(=O)Nc3cccc(C(F)(F)F)c3)cc2)C1` (centres unmarked), the “hERG current change (%, negative = inhibition) at 10uM” value is 2.47%.
The figure for `C=CCn1c(=NC(=O)c2ccccc2[N+](=O)[O-])sc2cc(S(C)(=O)=O)ccc21` is 2.98%; for `CCOC(=O)N1CCN(C(=O)c2cccc(NS(=O)(=O)c3ccc(F)c(F)c3)c2)CC1` it is 6.02%.
To `COCCn1cc(-c2csc(N)n2)c2ccccc21` belongs 4.23%.
To `CCC(c1nnnn1C1CCCC1)N(Cc1cccs1)Cc1cc2cccc(C)c2[nH]c1=O` (centres unmarked) belongs 9.78%.
For `CCc1ccc(NC(=O)c2cc(Br)ccc2Br)cc1`, the “hERG current change (%, negative = inhibition) at 10uM” value came out at 5.71%.
The figure for `O=C(c1csc2c1CCCC2)N1CCN(c2ccccc2)CC1` is -14.8%; for `O=C(Cn1cnc2ccccc21)N/N=C/c1ccco1` it is 12.5%; for `COc1ccc2cc(C(=O)C3CCCN(C(=O)c4snnc4C)C3)ccc2c1` (centres unmarked) it is -17.3%.
The figure for `O=C(/C=C/c1ccccc1)NCCS(=O)(=O)N1CCN(c2ccccc2)CC1` is -1.07%.
To `Cc1ccc(OCCN2C(=O)c3ccccc3C2=O)c(C)c1` belongs -1.63%.
Turning to `Cc1ccc(C)c(S(=O)(=O)N2CCN(CC(=O)NC(=O)NCc3ccccc3)CC2)c1`, the “hERG current change (%, negative = inhibition) at 10uM” value is on record as -9.97%.
To `O=C(CSc1nc(-c2ccco2)cc(C(F)(F)F)n1)N1CCSCC1` belongs -19.9%.
To `O=C(NCCCN1CCOCC1)C(=O)N/N=C/c1ccc(F)cc1` belongs 6.8%; to `COc1ccc(N(CC(=O)Nc2ccc(C)cc2)S(=O)(=O)c2c(C)noc2C)cc1`, 19.8%; to `O=C(NNc1nc(N2CCOCC2)nc(N2CCOCC2)n1)Nc1ccc(Cl)cc1`, 10.6%.
The figure for `COC(=O)c1sc(C(F)(F)F)c(-c2ccccc2)c1S(=O)(=O)N(C)C` is 9.31%; for `CC1Cc2ccccc2N1C(=O)CSc1ncccn1` (centres unmarked) it is 4.57%.
In the case of `CC1C(=O)C(C)(C)C(=O)OC1c1ccc([N+](=O)[O-])cc1` (centres unmarked), the “hERG current change (%, negative = inhibition) at 10uM” value was 11.8%.
The figure for `Cc1ccc(Nc2cccc(C(F)(F)F)c2)nn1` is -0.351%.
The figure for `O=Cc1ccc(OC(=O)Cc2ccc(F)cc2)cc1` is 11.2%; for `Cc1cc(C)nc(SCc2ccc(C(=O)N/N=C/c3ccncc3)cc2)n1` it is -50.5%.
To `COc1ccccc1N=Cc1c(C)c(C#N)c2[nH]c3ccccc3n2c1=O` belongs 6.06%; to `CCC1CCCCN1Cc1ccc(CNS(=O)(=O)c2ccc3c(c2)oc(=O)n3C)o1` (centres unmarked), -19.3%.
For the molecule `O=C(N/N=C/c1cnc(N2CCOCC2)s1)c1ccccc1`, the “hERG current change (%, negative = inhibition) at 10uM” value is 15.1%.
The figure for `Cc1nn(C)c(C(=O)N2CCN(C(=O)c3ccco3)CC2)c1Br` is 18.3%; for `CC(C)c1cc(CN2CCN(C3CCCC3)C(CCO)C2)[nH]n1` (centres unmarked) it is -5.93%.
The figure for `CC(=O)N=c1ncn(CC(COC(C)=O)OC(C)=O)c2nc[nH]c12` (centres unmarked) is 12.7%; for `O=C1CCCN1CCC12CC3CC(CC(C3)C1)C2` it is -6.45%.
To `CC(C)CCOc1ccc(C(=O)NCCC(=O)N2CCOCC2)cc1` belongs -4.62%.
`COc1ccc(S(=O)(=O)n2ccc(-c3ccc(OCCN(C)c4ccccn4)cc3)n2)cc1`: the “hERG current change (%, negative = inhibition) at 10uM” value came to 11.4%.
To `C=CCOC(=O)C1=C[C@H](c2ccc(C(F)(F)F)cc2)C[C@H](OCCCCO)O1` belongs -26.5%; to `Cc1cc(C)cc(NC(=O)COC(=O)Cn2cnc3c2c(=O)n(C)c(=O)n3C)c1`, -41.1%; to `CC(C)(C)n1nc2c(c1NC(=O)c1cccs1)CS(=O)C2` (centres unmarked), 23.4%.
To `C/C(N)=C(/C#N)C(=O)COC(=O)c1cc(-c2ccc(C)cc2)nc2ccccc12` belongs 16.8%.
The figure for `Cc1c(C(=O)NN2CCOCC2)cccc1[N+](=O)[O-]` is 3.03%.
